Test results published in PubChem BioAssay AID686978 (National Center for Advancing Translational Sciences (NCATS), 2013).
About 64,000 (15%) of roughly 420,000 compounds were called active. Inconclusive means that the source gave no clear call. Such entries were picked first, then a sample of the others. Calls follow the shape of the dose curve; as a rule, active = well fitted inhibition curve with a large enough effect; inconclusive = small, poorly fitted or top-dose-only effect; inactive = flat fitted curve, though single readings scatter. No potency is given beside an inconclusive call; the fits are too rough.

Assay: qHTS for Inhibitors of human tyrosyl-DNA phosphodiesterase 1 (TDP1): qHTS in cells in absence of CPT; also: nearly all actives have a fitted effect of over 55% in size
Details: DT40 Tdp1-/- hTDP1 cells, no CPT, ATP luminescence, 48 h; activity change, negative = growth inhibition: at 46.2 µM (top of the series) unless noted
Procedure, shortened: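 Chicken DT40 Tdp1-/- cells complemented with human TDP1, screened without camptothecin (DMSO vehicle only), 400 cells/well. Compounds pin-transferred, cells incubated at 37 °C for at least 48 hr. Growth read as ATP-dependent luminescence (CellTiter-Glo, 30 min at RT).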
% is scaled to controls: 0 for no effect and ±100 for the full control effect; potency is read from the fitted curve at half-maximal effect; tags tell the direction and shape of the fitted curve.

Compound	Potency	activity change, negative = growth inhibition
CC(=O)Nc1ccc(S(=O)(=O)Nc2cc([N+](=O)[O-])ccc2C)cc1	inconclusive [inhibitor, single point]	–
CCn1c(=O)c2cc(C(=O)NCc3cccs3)sc2c2ccccc21	inconclusive [inhibitor, full curve, poor fit]	–
O=C(Cn1cncn1)c1ccccc1	–	inactive: 3.32%
CC/C(=N\NC(=O)c1nnn(-c2nonc2N)c1-c1cccc(OC)c1)c1ccc(C)cc1	inconclusive [inhibitor, single point]	–
COc1ccc(C(=O)NCCn2cc(SCC(=O)NCC3CCCO3)c3ccccc32)cc1 (stereo unspecified)	–	inactive: -18.7%
CCOc1ccc(CNC(=O)C2=Cc3cc(Br)ccc3OC2)cc1OC	inconclusive [inhibitor, single point]	–
Cc1nc2ccccc2c2oc(C(=O)N3CCC(N4CCCCC4)CC3)cc12	inconclusive [inhibitor, single point]	–
COc1cccc(NC(=O)C2CCN(S(=O)(=O)c3ccccc3)CC2)c1	–	inactive: -9.8%
Cc1cc(C)c(Cn2c(=O)n(CCCC(=O)NCc3ccco3)c(=O)c3sccc32)c(C)c1	inconclusive [inhibitor, partial curve]	–
N=c1ncn(C2OC(CO)C(O)C2O)c2nc(Br)[nH]c12 (stereo unspecified)	inconclusive [inhibitor, single point]	–
COc1ccc(-c2c(-c3ccsc3)oc3ccc(N4CCOCC4)cc23)cc1	active: 16.4 µM	–
Cc1ccc(Cn2c(=O)n(-c3ccc(C)c(C)c3)c(=O)c3c(C)c(C)sc32)cc1	inconclusive [inhibitor, single point]	–
Cc1c(NC(=O)CSc2nc3ccc(Cl)cc3[nH]2)c(=O)n(-c2ccccc2)n1C	–	inactive: -27.2%
Cc1ccc(S(=O)(=O)N2CCCCC2)cc1NC(=O)c1ccc(Br)o1	–	inactive: -10.9%
Cc1cccc(N(C)Cc2nnc(-c3cccc(Br)c3)o2)c1	inconclusive [inhibitor, single point]	–
Cc1ccccc1OC(C)c1nc(-c2ccccc2)no1 (stereo unspecified)	–	inactive: -4.06%
Cc1noc(C)c1COc1cccc(C(=O)OCCOc2ccc(F)cc2)c1	inconclusive [inhibitor, single point]	–
O=C(NC1CCCCC1)C(c1ccccc1F)n1c(=O)c(-c2ccco2)nc2ccccc21 (stereo unspecified)	active: 16.4 µM	–
COc1ccc(N(CC(=O)NC2CC3CCC2C3)S(=O)(=O)c2ccccc2)cc1Cl (stereo unspecified)	inconclusive [inhibitor, single point]	–
CC(C)(NC(=O)NC(CO)c1ccccc1)c1cccc(C(C)(C)NC(=O)NC(CO)c2ccccc2)c1 (stereo unspecified)	–	inactive: 2.94%
CC(C)CN(CC(C)C)C(=S)Nc1ccc(Cl)cc1	inconclusive [inhibitor, partial curve]	–
CCOc1ccccc1Nc1nnc(Cc2ccccc2Cl)c(=O)[nH]1	inconclusive [inhibitor, partial curve]	–
CCOC(=O)C(=CNc1ccc(NC2=NCC(C)S2)cc1)C(=O)OCC (stereo unspecified)	active: 6.51 µM	–

Compound	Potency	activity change, negative = growth inhibition
COc1cc(NC(=O)N2CCC(CN3CCc4ccccc4C3)CC2)cc(OC)c1	–	inactive: -26.5%
COc1ccc(C(=O)O/N=C(\N)c2ccccc2Cl)cc1OC	inconclusive [inhibitor, partial curve, poor fit]	–
COc1ccc(CNC(=O)c2sc(=S)n(-c3ccccc3)c2N)cc1	inconclusive [inhibitor, single point]	–
Clc1ccc(/C=C/c2ccnc3ccccc23)cc1	active: 8.91 µM	–
CC1CCCCN1C(=O)COC(=O)c1cccc(NS(=O)(=O)c2ccccc2)c1 (stereo unspecified)	–	inactive: -13.7%
COc1ccc(NC(=O)C(NC(=O)c2ccc(=O)[nH]c2)c2ccc(C)cc2)cc1 (stereo unspecified)	–	inactive: -1.62%
COc1ccc(NC(=O)c2cc(C)nc3c2c(C)nn3-c2cccc(Cl)c2C)c(OC)c1	–	inactive: -25.1%
CC(=O)N1c2c(cc(Br)cc2S(=O)(=O)NCc2ccccc2Cl)CC1C (stereo unspecified)	inconclusive [inhibitor, single point]	–
CCOc1ccc(N/C(=N/c2nc(C)cc(C)n2)NC(=O)CC)cc1	inconclusive [inhibitor, partial curve, poor fit]	–
O=C(O)C(Cc1ccc(O)cc1)N1C(=O)c2ccccc2C1=O (stereo unspecified)	–	inactive: 3.13%
Cc1ccc(NC(=S)Nc2ccccn2)cc1C	active: 16.4 µM	–
CC(c1ccccc1)N1C(=O)c2ccccc2C1(O)Cc1ccccc1 (stereo unspecified)	inconclusive [inhibitor, single point]	–
Clc1ccc(CNc2ccc(CNc3ncn[nH]3)cc2)cc1	inconclusive [inhibitor, single point]	–
CN(C)CCOc1ccccc1Cc1ccccc1	inconclusive [inhibitor, partial curve, poor fit]	–
CN(C)c1ccc(-c2ccc3ncnc(N(C)Cc4ccco4)c3c2)cc1	active: 2.59 µM	–
C=CCn1c(SCC(=O)NC2CCCCC2)nnc1C1CCCCC1	inconclusive [inhibitor, partial curve]	–
CCc1ccc(NC(=S)N(CCN(C)C)C(C)c2ccncc2)cc1 (stereo unspecified)	–	inactive: -20.7%
O=C1CCC(C(=O)OC(C(=O)Nc2ccc([N+](=O)[O-])cc2Br)c2ccccc2)=NN1 (stereo unspecified)	–	inactive: -27%
O=C(NC(=Nc1ccccc1)N1CCOCC1)Nc1ccccc1	–	inactive: -14.4%
O=C(O)c1sccc1S(=O)(=O)N1CCN(c2ccc(C(F)(F)F)cn2)CC1	inconclusive [inhibitor, full curve, poor fit]	–
CCOC(=O)[C@@H]1[C@H]2COc3cc(OC)ccc3[C@H]2N2C(=O)N(c3ccc(F)cc3)C(=O)[C@@]12C	inconclusive [inhibitor, full curve, poor fit]	–
COc1ccc(C(=O)NC2CCSc3ccccc32)cc1F (stereo unspecified)	inconclusive [inhibitor, single point]	–
Cc1ccccc1-c1nc(CS(=O)(=O)CC(=O)NCc2ccc(F)cc2)c(C)o1	inconclusive [inhibitor, partial curve]	–
